Paper PMC4424274, “Evaluation of [^11C]CB184 for imaging and quantification of TSPO overexpression in a rat model of herpes encephalitis” (European Journal of Nuclear Medicine and Molecular Imaging, 2015)
This continues a long series; more values of the same kind are listed elsewhere.

Tests used:
TSPO [1] = target: T1, TSPO (Rattus norvegicus, UniProt P16257); experiment: PET imaging, VOI-based SUV analysis in control and HSE rats; format: in vivo; conditions: PET 50 – 60 min after injection
T1 construct: from tissue; host or cells: Brain regions and peripheral organs of male Wistar rats, measured in vivo by PET and ex vivo by gamma counting
Method: PET scans were performed using a microPET Focus 220 camera (Siemens Medical Solutions Inc., Malvern, PA) on either day 6 or day 7 after inoculation with HSV-1 [18], depending on the severity of clinical symptoms. The rats were anaesthetized with 5 % isoflurane mixed with medical air at a flow rate of […]. After induction, anaesthesia was maintained with 1.5 – 2 % of isoflurane. The anaesthetized rats were positioned in the camera in a supine position with the head in the field of view. The PET tracer [^11C]CB184 was manually injected via the penile vein, and at the same time a dynamic 60-min scan was started. […] Therefore, it was decided to scan the remaining animals with a 30-min scan. For 30 min the animals were kept under anaesthesia on the operation table after injection of the PET tracer into the penile vein, and were then placed in the scanner for a 30-min dynamic scan. A transmission scan was obtained in all rats using a ^57Co point source for attenuation and scatter correction. In the pretreated group, 5 mg/kg unlabelled PK11195 (Sigma-Aldrich, St. Louis, MO) in dimethyl sulphoxide (DMSO) at a concentration of 10 mg/ml was administered via a tail vein 5 min before injection of the PET tracer.
The list-mode data from the emission scan were reconstructed into three frames of 10 min for the dynamic 30-min scans, and into 21 frames (6 × 10 s, 4 × 30 s, 2 × 60 s, 1 × 120 s, 1 × 180 s, 4 × 300 s, and 3 × 600 s) for the 60-min dynamic scans. Emission sinograms were iteratively reconstructed (OSEM 2D, four iterations, and 16 subsets) after being normalized and corrected for attenuation and decay of radioactivity. PET images were analysed using VINCI 4.22 software (Max Planck Institute for Neurological Research, Cologne, Germany). […] Volumes of interest (VOI) for the different brain regions were defined by addition of previously constructed regions. Brain radioactivity concentrations were calculated from these regions of interest to generate time–activity curves (TACs). The TACs were corrected for injected dose and animal body weight, and expressed as SUV. Based on visual analysis of the TACs, it was decided to use the last 10-min frame of the scans obtained without arterial blood sampling for further SUV analysis of differences between groups, because at this point tracer uptake reached a plateau (see Fig. 2). No significant differences were observed between the 30-min and the 60-min scans, and their data were combined.

TSPO [2] = target: T1, TSPO; experiment: Ex vivo biodistribution of [^11C]CB184 in control and HSE rats; conditions: approximately 75 min after injection
Method: PET scans were performed using a microPET Focus 220 camera (Siemens Medical Solutions Inc., Malvern, PA) on either day 6 or day 7 after inoculation with HSV-1 [18], depending on the severity of clinical symptoms. The rats were anaesthetized with 5 % isoflurane mixed with medical air at a flow rate of […]. After induction, anaesthesia was maintained with 1.5 – 2 % of isoflurane. The anaesthetized rats were positioned in the camera in a supine position with the head in the field of view. The PET tracer [^11C]CB184 was manually injected via the penile vein, and at the same time a dynamic 60-min scan was started. […] For 30 min the animals were kept under anaesthesia on the operation table after injection of the PET tracer into the penile vein, and were then placed in the scanner for a 30-min dynamic scan. A transmission scan was obtained in all rats using a ^57Co point source for attenuation and scatter correction. In the pretreated group, 5 mg/kg unlabelled PK11195 (Sigma-Aldrich, St. Louis, MO) in dimethyl sulphoxide (DMSO) at a concentration of 10 mg/ml was administered via a tail vein 5 min before injection of the PET tracer.
The brain and peripheral organs were excised and dissected, and blood was centrifuged to collect a plasma sample. Tissues were weighed and radioactivity was measured in a gamma counter (LKB Wallac, Turku, Finland). Tracer uptake in each region was corrected for the injected tracer dose and body weight and expressed as standardized uptake value (SUV), which was defined as: radioactivity (MBq/cm^3)/[injected dose (MBq)/body weight (g)].

[3] = HSE rats pretreated with 5 mg/kg PK11195
[4] = control (PBS) rats pretreated with 5 mg/kg PK11195

With `CCCN(CCC)C(=O)Cc1c(-c2ccc(O[11CH3])cc2)nc2c(Cl)cc(Cl)cn12` [[^11C]CB184] the “SUV PET, Amygdala” value (TSPO [1]; [3]) was 0.16 ± 0.05 SUV, the “SUV PET, Cerebellum” value (TSPO [1]; [3]) was 0.14 ± 0.03 SUV and the “SUV PET, Frontal cortex” value (TSPO [1]; [3]) was 0.18 ± 0.03 SUV. The “SUV PET, Hippocampus” value (TSPO [1]; [3]) was 0.12 ± 0.03 SUV, the “SUV PET, Hypothalamus” value (TSPO [1]; [3]) was 0.18 ± 0.05 SUV and the “SUV PET, Medulla” value (TSPO [1]; [3]) was 0.19 ± 0.06 SUV. The “SUV PET, Midbrain” value (TSPO [1]; [3]) was 0.13 ± 0.03 SUV, the “SUV PET, Olfactory bulb” value (TSPO [1]; [3]) was 0.26 ± 0.03 SUV and the “SUV PET, Pons” value (TSPO [1]; [3]) was 0.19 ± 0.05 SUV. The “SUV PET, Remaining cortices” value (TSPO [1]; [3]) was 0.15 ± 0.02 SUV, the “SUV PET, Septum” value (TSPO [1]; [3]) was 0.12 ± 0.03 SUV and the “SUV PET, Striatum” value (TSPO [1]; [3]) was 0.17 ± 0.05 SUV. For the same molecule, the “SUV PET, Thalamus” value (TSPO [1]; [3]) was 0.11 ± 0.03 SUV, the “SUV PET, Whole brain” value (TSPO [1]; [3]) was 0.15 ± 0.02 SUV and the “SUV PET, Amygdala” value (TSPO [1]; HSE rats) was 0.49 ± 0.14 SUV. For the same molecule, the “SUV PET, Cerebellum” value (TSPO [1]; HSE rats) was 0.62 ± 0.17 SUV, the “SUV PET, Frontal cortex” value (TSPO [1]; HSE rats) was 0.42 ± 0.13 SUV and the “SUV PET, Hippocampus” value (TSPO [1]; HSE rats) was 0.40 ± 0.11 SUV. For the same molecule, the “SUV PET, Hypothalamus” value (TSPO [1]; HSE rats) was 0.56 ± 0.10 SUV, the “SUV PET, Medulla” value (TSPO [1]; HSE rats) was 0.86 ± 0.27 SUV and the “SUV PET, Midbrain” value (TSPO [1]; HSE rats) was 0.42 ± 0.12 SUV. For the same molecule, the “SUV PET, Olfactory bulb” value (TSPO [1]; HSE rats) was 0.96 ± 0.18 SUV, the “SUV PET, Pons” value (TSPO [1]; HSE rats) was 0.73 ± 0.17 SUV and the “SUV PET, Remaining cortices” value (TSPO [1]; HSE rats) was 0.45 ± 0.06 SUV. The “SUV PET, Septum” value (TSPO [1]; HSE rats) was 0.40 ± 0.16 SUV, the “SUV PET, Striatum” value (TSPO [1]; HSE rats) was 0.38 ± 0.06 SUV and the “SUV PET, Thalamus” value (TSPO [1]; HSE rats) was 0.33 ± 0.07 SUV. For the same molecule, the “SUV PET, Whole brain” value (TSPO [1]; HSE rats) was 0.52 ± 0.08 SUV, the “SUV PET, Amygdala” value (TSPO [1]; [4]) was 0.16 ± 0.02 SUV and the “SUV PET, Cerebellum” value (TSPO [1]; [4]) was 0.14 ± 0.02 SUV. The “SUV PET, Frontal cortex” value (TSPO [1]; [4]) was 0.14 ± 0.02 SUV, the “SUV PET, Hippocampus” value (TSPO [1]; [4]) was 0.13 ± 0.03 SUV and the “SUV PET, Hypothalamus” value (TSPO [1]; [4]) was 0.16 ± 0.03 SUV. The “SUV PET, Medulla” value (TSPO [1]; [4]) was 0.19 ± 0.04 SUV, the “SUV PET, Midbrain” value (TSPO [1]; [4]) was 0.11 ± 0.02 SUV and the “SUV PET, Olfactory bulb” value (TSPO [1]; [4]) was 0.21 ± 0.03 SUV. For the same molecule, the “SUV PET, Pons” value (TSPO [1]; [4]) was 0.18 ± 0.03 SUV, the “SUV PET, Remaining cortices” value (TSPO [1]; [4]) was 0.14 ± 0.01 SUV and the “SUV PET, Septum” value (TSPO [1]; [4]) was 0.10 ± 0.01 SUV. The “SUV PET, Striatum” value (TSPO [1]; [4]) was 0.11 ± 0.03 SUV, the “SUV PET, Thalamus” value (TSPO [1]; [4]) was 0.12 ± 0.02 SUV and the “SUV PET, Whole brain” value (TSPO [1]; [4]) was 0.14 ± 0.01 SUV. The “SUV PET, Amygdala” value (TSPO [1]; control rats) was 0.43 ± 0.11 SUV, the “SUV PET, Cerebellum” value (TSPO [1]; control rats) was 0.48 ± 0.08 SUV and the “SUV PET, Frontal cortex” value (TSPO [1]; control rats) was 0.44 ± 0.12 SUV. The “SUV PET, Hippocampus” value (TSPO [1]; control rats) was 0.31 ± 0.09 SUV, the “SUV PET, Hypothalamus” value (TSPO [1]; control rats) was 0.47 ± 0.15 SUV and the “SUV PET, Medulla” value (TSPO [1]; control rats) was 0.47 ± 0.08 SUV. For the same molecule, the “SUV PET, Midbrain” value (TSPO [1]; control rats) was 0.33 ± 0.09 SUV, the “SUV PET, Olfactory bulb” value (TSPO [1]; control rats) was 0.84 ± 0.13 SUV and the “SUV PET, Pons” value (TSPO [1]; control rats) was 0.44 ± 0.11 SUV. For the same molecule, the “SUV PET, Remaining cortices” value (TSPO [1]; control rats) was 0.40 ± 0.07 SUV, the “SUV PET, Septum” value (TSPO [1]; control rats) was 0.29 ± 0.12 SUV and the “SUV PET, Striatum” value (TSPO [1]; control rats) was 0.29 ± 0.09 SUV. For the same molecule, the “SUV PET, Thalamus” value (TSPO [1]; control rats) was 0.26 ± 0.07 SUV, the “SUV PET, Whole brain” value (TSPO [1]; control rats) was 0.41 ± 0.08 SUV and the “SUV ex vivo, Amygdala/piriform cortex” value (TSPO [2]; [3]) was 0.08 ± 0.06 SUV. For the same molecule, the “SUV ex vivo, Cerebellum” value (TSPO [2]; [3]) was 0.11 ± 0.06 SUV, the “SUV ex vivo, Cingulate/frontopolar cortex” value (TSPO [2]; [3]) was 0.10 ± 0.05 SUV and the “SUV ex vivo, Entorhinal cortex” value (TSPO [2]; [3]) was 0.10 ± 0.05 SUV. For the same molecule, the “SUV ex vivo, Frontal cortex” value (TSPO [2]; [3]) was 0.08 ± 0.05 SUV, the “SUV ex vivo, Olfactory bulb” value (TSPO [2]; [3]) was 0.17 ± 0.11 SUV and the “SUV ex vivo, Trachea” value (TSPO [2]; [3]) was 1.02 ± 0.70 SUV. For the same molecule, the “SUV ex vivo, Cerebellum” value (TSPO [2]; HSE rats) was 0.84 ± 0.41 SUV, the “SUV ex vivo, Cingulate/frontopolar cortex” value (TSPO [2]; HSE rats) was 0.46 ± 0.21 SUV and the “SUV ex vivo, Entorhinal cortex” value (TSPO [2]; HSE rats) was 0.57 ± 0.39 SUV. For the same molecule, the “SUV ex vivo, Frontal cortex” value (TSPO [2]; HSE rats) was 0.39 ± 0.09 SUV, the “SUV ex vivo, Trachea” value (TSPO [2]; HSE rats) was 6.38 ± 3.30 SUV and the “SUV ex vivo, Amygdala/piriform cortex” value (TSPO [2]; [4]) was 0.10 ± 0.05 SUV. The “SUV ex vivo, Cerebellum” value (TSPO [2]; [4]) was 0.13 ± 0.08 SUV, the “SUV ex vivo, Cingulate/frontopolar cortex” value (TSPO [2]; [4]) was 0.24 ± 0.17 SUV and the “SUV ex vivo, Entorhinal cortex” value (TSPO [2]; [4]) was 0.09 ± 0.07 SUV. The “SUV ex vivo, Frontal cortex” value (TSPO [2]; [4]) was 0.10 ± 0.07 SUV, the “SUV ex vivo, Olfactory bulb” value (TSPO [2]; [4]) was 0.20 ± 0.08 SUV and the “SUV ex vivo, Trachea” value (TSPO [2]; [4]) was 0.81 ± 0.35 SUV. For the same molecule, the “SUV ex vivo, Amygdala/piriform cortex” value (TSPO [2]; control rats) was 0.30 ± 0.08 SUV, the “SUV ex vivo, Cerebellum” value (TSPO [2]; control rats) was 0.52 ± 0.06 SUV and the “SUV ex vivo, Cingulate/frontopolar cortex” value (TSPO [2]; control rats) was 0.36 ± 0.13 SUV. The “SUV ex vivo, Entorhinal cortex” value (TSPO [2]; control rats) was 0.36 ± 0.13 SUV, the “SUV ex vivo, Frontal cortex” value (TSPO [2]; control rats) was 0.44 ± 0.44 SUV and the “SUV ex vivo, Olfactory bulb” value (TSPO [2]; control rats) was 1.06 ± 0.15 SUV. For the same molecule, the “SUV ex vivo, Trachea” value (TSPO [2]; control rats) was 5.56 ± 1.50 SUV.
